# From PubChem BioAssay AID1466 (National Center for Advancing Translational Sciences (NCATS), 2008)
# The whole screen tested about 200,000 compounds, of which about 10 (0.005%) were called active. This list was built around the results that the source calls inconclusive (neither active nor inactive); the mix of calls is not that of the screen. The call rests on the fitted dose curve; in most records, active means well fitted inhibition curve with a large enough effect; inconclusive means small, poorly fitted or top-dose-only effect, or effect the other way, or another doubt; inactive means no such curve, though single readings can be large or run the other way. No potency is given beside an inconclusive call; the fits are too rough.
# Molecular target: Lysosomal alpha-glucosidase (Homo sapiens) (UniProt P10253)
# Test: qHTS Assay for Inhibitors of Human alpha-Glucosidase as a Potential Chaperone Treatment of Pompe Disease;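 on activity change, negative = inhibition: plate controls were uninhibited enzyme wells for no effect and no-enzyme background for full effect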
# Conditions: purified human GAA, 4-MU-alpha-glucoside fluorescence; activity change, negative = inhibition: at 76.9 µM (top of the series) unless noted
# Outline: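 Endpoint fluorogenic read: 20 min room-temperature reaction of 4 nM human alpha-glucosidase with 400 uM 4-methylumbelliferyl-alpha-D-pyranoside, pH 5.0, quenched with 1M NaOH/1M glycine pH 10. AC50 from Hill modeling.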
# Potency means the concentration at half of the fitted maximal effect; tags describe the fitted curve by direction and shape.
SMILES,Potency,"activity change, negative = inhibition"
CC(=O)c1ccc(OCC(=O)NC2CCS(=O)(=O)C2)cc1 (stereo unspecified),"inconclusive [activator, partial curve]",–
Cc1ccc(C2CC(c3ccccc3)=NN2c2ccccc2)o1 (stereo unspecified),"inconclusive [activator, partial curve]",–
O=C(NC1(C(F)(F)F)N=C2SCCN2C1=O)C1CCCCC1 (stereo unspecified),"inconclusive [inhibitor, full curve, poor fit]",–
CC1CCN(C(c2nnnn2CCc2ccccc2)C(C)C)CC1 (stereo unspecified),"inconclusive [inhibitor, single point]",–
CC1CN(C(NC(=O)C(C)(C)C)C(Cl)(Cl)Cl)CC(C)O1 (stereo unspecified),"inconclusive [activator, partial curve]",–
COc1cccc(/C=N/NC(=O)CCCc2ccc(OC)c(C)c2)c1,"inconclusive [inhibitor, single point]",–
CC1Cc2ccccc2N1C(=O)Cn1cc([N+](=O)[O-])cn1 (stereo unspecified),"inconclusive [inhibitor, single point]",–
O=C(Nc1ccc(Cl)cc1)N1CCCN(Cc2ccccc2F)C1,–,inconclusive: -15.1% [inhibitor]
O=C(NC1(C(F)(F)F)C(=O)Nc2c1c(=O)[nH]c(=O)n2-c1ccc(F)cc1)c1cccnc1 (stereo unspecified),"inconclusive [inhibitor, partial curve]",–
CCn1c(NC(=O)c2ccc(COc3ccc(C)cc3[N+](=O)[O-])o2)nc2ccccc21,"inconclusive [inhibitor, partial curve, poor fit]",–
CCn1c(COc2ccccc2C)nnc1SCC(=O)N1CCCCC1,"inconclusive [inhibitor, full curve, poor fit]",–
COC(CNC(=O)c1c[nH]c2ccc(S(=O)(=O)N3CCC4(CC3)OCCO4)cc2c1=O)OC,"inconclusive [inhibitor, full curve, poor fit]",–
CC(C)(C)NS(=O)(=O)c1ccc(NC(=O)C(Sc2ccccc2)c2ccccc2)cc1 (stereo unspecified),–,inconclusive: -18.8% [inhibitor]
CC(C)(C)c1ccc(CNc2ccc([N+](=O)[O-])cn2)cc1,"inconclusive [inhibitor, single point]",–
COc1ccc(Nc2nc(C)cc(=O)[nH]2)cc1,–,inactive: -6.61%
NC(=O)CSc1nnc(-c2cc(-c3cccs3)nc3ccccc23)o1,"inconclusive [activator, partial curve]",–
COc1ccc(N(C)S(=O)(=O)c2cccc(C(=O)Nc3ccc(-n4cnnn4)cc3)c2)cc1,"inconclusive [inhibitor, single point]",–
Cc1cccc(NC(=O)COC(=O)c2ccc3c(c2)OCO3)c1C,"inconclusive [inhibitor, partial curve, poor fit]",–
CN(C)/C=N/c1nc2ncc(-c3ccc(Cl)cc3)c(/N=C/N(C)C)n2n1,–,inconclusive: 15.1% [activator]
Cc1sc2nc(C3CC3)nc(SCC(=O)N3CC(=O)Nc4ccccc43)c2c1C,"inconclusive [inhibitor, single point]",–
CN(C(=O)c1ccc2c(c1)C(=O)N(CCC1=CCCCC1)C2=O)C1CCCCC1,–,inconclusive: -16.7% [inhibitor]

SMILES,Potency,"activity change, negative = inhibition"
COC(=O)c1ccc(=O)n(Cc2ccco2)c1,"inconclusive [inhibitor, single point]",–
COCc1cc(C)nc(NC2CCCCC2)c1C#N,"inconclusive [activator, single point]",–
COc1ccc(C(C[N+](=O)[O-])c2c(-c3ccccc3)cc3ccccn23)cc1 (stereo unspecified),"inconclusive [inhibitor, full curve, poor fit]",–
O=C(NC1=NCCS1)C1CC2CCC1C2 (stereo unspecified),"inconclusive [activator, full curve, poor fit]",–
Cc1ccc2c(C(=O)CNc3nncs3)c(C)[nH]c2c1,–,inactive: 1.73%
O=C(/C=C/c1cccc([N+](=O)[O-])c1)N1CCN(c2ccccc2F)CC1,"inconclusive [inhibitor, single point]",–
CCn1c(=NC(=O)c2ccc(S(=O)(=O)N3CCOCC3)cc2)sc2cccc(OC)c21,"inconclusive [activator, partial curve]",–
Cc1ccc(-c2csc(NC(=O)C3CC=CCC3C(=O)O)c2C(=O)OC(C)C)cc1 (stereo unspecified),"inconclusive [inhibitor, partial curve]",–
CCCCN(CC)CCNC(=O)CCC(=O)Nc1ccc2nc(N3CCN(C)CC3)cc(C)c2c1,"inconclusive [activator, partial curve]",–
COc1ccc2c(c1)c1nc3ccccc3nc1n2Cc1ccc(OC(C)C)c(OC)c1,"inconclusive [inhibitor, single point]",–
CN1CC=C2C(C#N)=C(N)C(C#N)(C#N)C(c3ccsc3)C2C1 (stereo unspecified),"inconclusive [activator, single point]",–
COc1ccccc1CN1C(=O)c2ccncc2C1=O,"inconclusive [inhibitor, single point]",–
O=C(CCN1C(=O)c2ccccc2C1=O)N1CCN(C2c3ccccc3-c3ccccc32)CC1,"inconclusive [inhibitor, single point]",–
O=C(CCC(=O)N1CCN(S(=O)(=O)c2ccccc2)CC1)NC1CCCc2ccccc21 (stereo unspecified),"inconclusive [inhibitor, partial curve]",–
CCN1C(=O)c2cccc3c(S(=O)(=O)Nc4ncccc4C)ccc1c23,–,inactive: -5.4%
C=CCn1c(=S)[nH]c2nc3c(cc2c1=O)COC(C)(C)C3,"inconclusive [inhibitor, single point]",–
COC(=O)c1ccccc1NC(=O)c1ccccc1N(C)S(=O)(=O)c1ccccc1,"inconclusive [inhibitor, single point]",–
C/C(=N\OCC(=O)Nc1ccc2c(c1)OCCO2)c1ccc2c(c1)OCCO2,"inconclusive [inhibitor, partial curve, poor fit]",–
Cn1c(=O)c2c(ncn2CC(COCc2ccccc2Cl)OCc2ccccc2Cl)n(C)c1=O (stereo unspecified),"inconclusive [inhibitor, full curve]",–
CCOc1ccc(/C=C(\C#N)C(=O)c2c(C)[nH]c3ccccc23)cc1OC,"inconclusive [inhibitor, single point]",–
O=C(CCC1CCCN(C(=O)C2CCCC2)C1)NCc1ccc(F)c(F)c1 (stereo unspecified),"inconclusive [inhibitor, single point]",–

SMILES,Potency,"activity change, negative = inhibition"
N#CC(C#N)=C(Nc1ccc(F)cc1)SCc1cccc(Br)c1,"inconclusive [inhibitor, full curve, poor fit]",–
CCC1(c2ccc(F)cc2)NC(=O)N(CC(=O)Nc2ccc(-c3nc4ccc(C)cc4s3)cc2)C1=O (stereo unspecified),–,inconclusive: 19.5% [activator]
CCC(=O)OCC(=O)Nc1ccc2c(c1)OCO2,"inconclusive [inhibitor, single point]",–
O=[N+]([O-])c1ccc(F)cc1Oc1nc(-c2cccnc2)nc2ccccc12,–,inactive: 1.6%
CCOc1ccc(NC(=O)c2ccc(Br)o2)c([N+](=O)[O-])c1,"inconclusive [activator, single point]",–
COc1ccc(N2CC(C(=O)OC(C)C(=O)c3ccccc3)CC2=O)cc1 (stereo unspecified),–,inconclusive: 19.4% [activator]
O=C(COc1ccc(-c2nnco2)cc1)N1CCN(S(=O)(=O)c2ccccc2)CC1,"inconclusive [inhibitor, partial curve]",–
COC(=O)[C@@]1(Cc2ccc(F)cc2)[C@H]2c3cc(C(=O)N(C)C)n(Cc4ccc(OC(F)(F)F)cc4)c3C[C@H]2CN1C(=O)c1ccccc1,"inconclusive [inhibitor, single point]",–
NC1=NN=C(N2N=C(c3ccccc3)CC2(O)C(F)(F)F)n2ncnc2C1 (stereo unspecified),–,inconclusive: 13.7% [activator]
O=C(c1cnc(N2CCN(c3ncccn3)CC2)c2ccccc12)N1CCN(c2ncccn2)CC1,"inconclusive [inhibitor, single point]",–
Cc1cc(C(=O)OCC(=O)NCc2cccs2)c2ccccc2n1,"inconclusive [inhibitor, single point]",–
COc1ccc(-c2cc(C(F)(F)F)nc(SCC(=O)NCCCN3CCOCC3)n2)cc1,–,inconclusive: 21.7% [activator]
COc1ccc(C(=O)C2CCCN(Cc3cn[nH]c3-c3ccc(F)cc3)C2)cc1OC (stereo unspecified),–,inconclusive: 16.5% [activator]
C(=N\Nc1nc(Nc2ccccc2)nc(N2CCCCC2)n1)/c1ccco1,"inconclusive [inhibitor, single point]",–
COc1ccccc1NC(=O)c1cc(Br)ccc1Cl,"inconclusive [inhibitor, single point]",–
O=S(=O)(c1ccc(Cl)c(S(=O)(=O)N2CCCC2)c1)N1CCCC1,–,inconclusive: 9.54% [activator]
CCOC(=O)c1ccc(N=Cc2nc3ccccc3n2C)cc1,"inconclusive [inhibitor, single point]",–
Cc1c(C(=O)Nc2ccccc2[N+](=O)[O-])csc1-c1ccccc1,"inconclusive [inhibitor, partial curve, poor fit]",–
CCN(CC)S(=O)(=O)c1ccc(NC(=O)Cn2c(=O)sc3ccccc32)cc1,"inconclusive [inhibitor, single point]",–
